± gives the standard deviation of the averaged measurements. The list shows a part of the results.

This assay concerns PfAP2-G AP2 domain (GST-tagged). Briefly: gcPBM binding intensity (ln(normalized median fluorescence intensity)); higher = stronger DNA binding. The gist of the method:
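Using an Agilent 4 × 180k array, primer-extended double-stranded 36-bp intergenic genomic probes and negative controls were exposed for 1 h to GST-fused P. falciparum DNA-binding domains expressed in E. coli. Binding was carried out in 1× PBS with 1% milk, 0.2 mg/ml BSA, 0.5% salmon testes DNA and 0.03% Triton X-100, and protein was detected with Alexa488 anti-GST antibody and a 488 nm scan. Binding intensity is the highest Masliner-normalised natural-log median intensity across replicate spots of either probe orientation.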
For “ATAAATACATATGTGTGTACACATTATATATATATA [XGTACX_site1486]”, the “gcPBM binding intensity (ln)” value was 11.6 ± 0.69.
The result for “GAAAAATTAAAACCTACACACACATTTAAAAAAAAA [CACACA_site9005]” reads 10.05 ± 0.078.
With “TTTTTTATTCATGTAACACACATTTAATTATGAATT [CACACA_site2706]”, the “gcPBM binding intensity (ln)” value came to 10 ± 0.17.
Next, “GAATGAATACGTTTTACACACTTGAATCTAATTTCA [CACACA_site6593]”: 10.2 ± 0.17; “ATTCTACTTTTATTTATTTATTTGTTTATATATATA [XGTACX_negctrl_site609]”: 10.03 ± 0.057.
Next, “ATATATATATATATATGTACTTATTTATTTATATTA [XGTACX_site4646]”: 11.4 ± 0.99; “GTGTAGATATTGAAATGTACTCTCCATATAAAATAA [XGTACX_site4713]”: 11 ± 0.52.
With “AAAGAATTTGCATATACACACAAAAAAATATATACA [CACACA_site386]”, the “gcPBM binding intensity (ln)” value was 10.03 ± 0.035.
Next, “CTTATAGGTCATTTCCTTGACCCCCTTTGTTGTACT [CACACA_negctrl_site551]”: 10.8 ± 0.52; “ATCAGTCGGCAGGACAGTACACAGTAGCCAGAAAAT [XGTACX_site2550]”: 11.2 ± 0.67; “TATAAATATAAATATACACACATATATATATATATA [CACACA_site1678]”: 9.99 ± 0.36.
The result for “TTGCATTAATTTATGTGTACATATAAATTTTTATTT [XGTACX_site3060]” reads 11.6 ± 0.88.
The result for “TTTAACAAGTTAAACACACATACATATATACATATA [CACACA_site2536]” reads 9.76 ± 0.014.
As for “TTTTTTTTTTTTTTATGTACACATCTAAAAAAAAGG [XGTACX_site2067]”, the “gcPBM binding intensity (ln)” value worked out at 11.6 ± 1.1.
Next, “GCCCCCTAAAAAATTACACACGAAAAAAATGAATTT [CACACA_site9128]”: 11.7 ± 1.2; “GGTCTAACAACATGCGCACACACATGAATATTCATA [CACACA_site1539]”: 10.5 ± 0.36; “TAAGTATAAAAAAATAGTACAATTATGAAATATCGT [XGTACX_site2529]”: 11.2 ± 0.71.
The result for “TTCTTTTTAATTAATACACACACACCCATATATATA [CACACA_site8719]” reads 10.3 ± 0.25; that for “TATAAAAATATATATATATATATATATATAATATGT [TGCATGCA_negctrl_site85]”, 10.2 ± 0.42; that for “TTAAAAAAAAAACACACACACATACCCATATATATA [CACACA_site5768]”, 10 ± 0.28.
Next, “ATTTGTTCCTTGGGAGTTTACTTTTTTTTAATTTTA [CACACA_negctrl_site638]”: 10.15 ± 0.042; “TTTATTTAAGAAAAATGTACAGGTTCATTTCATAAT [XGTACX_site27]”: 10.9 ± 0.54; “CATATAAATACATGCACACAAAAATATCAATACATT [CACACA_site2392]”: 10.12 ± 0.014.
Regarding “AACAAAATTGAAGGAACACACATACATATTTATATA [CACACA_site6227]”, the “gcPBM binding intensity (ln)” value worked out at 10.
The result for “AAAAAATTAGATTATGCACACACACTAATAAATAAT [CACACA_site8604]” reads 10.07 ± 0.064; that for “ATGTGTTAAAAATGCACACAAAAAAATATACATATA [CACACA_site295]”, 10.175 ± 0.007; that for “ACATGTGAACATTCAATGCACACGATGTAATTATAC [CACACA_site14]”, 10.19 ± 0.042.
The result for “TTTTTTAAATATATGGTGCATAGAAAGATATTATAC [GTGCAC_site9984]” reads 10.2 ± 0.26; that for “ATATTATATATATACACACACACATGCATGCACCTA [CACACA_site106]”, 10.06 ± 0.078; that for “TTTAAAAAAAGCAGTACATGCAAAATAATAACAAGC [TGCATGCA_site392]”, 11 ± 0.53.
The result for “CAATTATATAATTGAAGTACTAGGAAAGATATATAT [XGTACX_site5459]” reads 11.2 ± 0.62.
For the sequence “TAAAAAAATATTACATGTACATAAAATATATATATA [XGTACX_site4633]”, the “gcPBM binding intensity (ln)” value is 11.4 ± 0.78.
Next, “AATTAAATTCGGTACTGTACATTTCAAAAATATACG [XGTACX_site48]”: 11.1 ± 0.7; “TATACATATTTTTTTTGTACATATATAATATATATA [XGTACX_site2399]”: 10.9 ± 0.52.
Next, “GGGAAAAAAAAAAGCACACATACGTAAATATATAAC [CACACA_site226]”: 10.2 ± 0.22; “CTTAAATTTTACTGAAGTACAAAATCGGTTCAATGA [XGTACX_site3292]”: 11 ± 0.72.
The result for “CACTACACTGTTAATAGTACATATATTTAAAAAAAA [XGTACX_site7371]” reads 11.1 ± 0.61; that for “ATGAATAAATAGGTCACACACAAATATATATAAATA [CACACA_site2416]”, 10.5 ± 0.32; that for “TTGTTCGATATATGCACACAGTTTTGTTATTTTTCC [CACACA_site4972]”, 10.135 ± 0.007.
As for “TACAAATTTATATAAAGTACAAAAAATAATAAAAAT [XGTACX_site7355]”, the “gcPBM binding intensity (ln)” value worked out at 11.1 ± 0.57.
Next, “AAAAAAAAAAAAAGTGCACACATAAAAATATGATCT [CACACA_site8090]”: 10.7 ± 0.57; “ACATATGTTTTATGTAGTACTTATTTATTATTATAT [XGTACX_site7528]”: 11.3 ± 0.6; “AAAAAAAACGGACACACACACATAAATATATATAAA [CACACA_site4260]”: 11.3 ± 1.1.
Next, “AAAAGGTATAGAAACACACACACGTGAATATAGTTT [CACACA_site1905]”: 9.93 ± 0.14; “CACACCCACCAACACACACACAAAAAAAAAAAGAAA [CACACA_site500]”: 10.3 ± 0.7.
On to “ATATTTTATTTTAATACACACAAGTTATATAATCAC [CACACA_site780]”, for which the “gcPBM binding intensity (ln)” value came out at 10.01 ± 0.099.
Next, “TACATTTTACTTGTTACACACATATAAAATTAACCA [CACACA_site2922]”: 10.2 ± 0.18; “AAACGTACATAATACACACACATGTATACCTATAAA [CACACA_site7051]”: 11.3 ± 1.1.
Next, “TCAAATAATAAGTATGCATGCTATATTTATATATAC [TGCATGCA_site920]”: 9.75 ± 0.057.
Next, “AGAAAAAAAAAAAGTACACACATATAATATATATAT [CACACA_site2973]”: 11.6 ± 1.2; “AGTTAATGAATAGGCACACATATATCTGTATAAATA [CACACA_site4448]”: 10.1 ± 0.11; “CATATATATTTGTTCACACACACACTAGAAAAAAAA [CACACA_site5380]”: 10.4 ± 0.26.
As for “TAAAAAAATAAATATACACACATATATATATATATA [CACACA_site1089]”, the “gcPBM binding intensity (ln)” value was found to be 10.1 ± 0.78.
Next, “TGTAGAAATGGGTGCACACACATATAAAATCTATAT [CACACA_site7224]”: 10.7 ± 0.68; “GGATTTATTATATATACACACATACAGATATATATA [CACACA_site5222]”: 9.96.
On to “TCATTAAAAACTAAAAGTACTCAATATTATGAACAT [XGTACX_site7807]”, for which the “gcPBM binding intensity (ln)” value turned out to be 11.2 ± 0.64.
The result for “ATAAAAAATAAAATAAATAAAAAATATTTACCCTTA [TGCATGCA_negctrl_site396]” reads 9.43 ± 0.21; that for “TATGTACACCCATATACACACCTCTATAATATATAT [CACACA_site4563]”, 11.6 ± 0.95.
Next, “ATATTGTAGATATTGTGTACATATTTTACAACTTTT [XGTACX_site7621]”: 11.5 ± 0.91.
Next, “ACATCATATTAAGAAAGTACAAAAAGAGAACATATA [XGTACX_site1268]”: 11 ± 0.4.
On to “AAACAAAATTTATTTCAAAGTTAATAATTTTTATGT [CACACA_negctrl_site232]”, for which the “gcPBM binding intensity (ln)” value amounted to 9.45 ± 0.23.
Next, “TTTTTCACATTTCAGTGTACATTTTAATCATATATA [XGTACX_site915]”: 11.2 ± 0.79; “CGACAAAAATTTTACAGTACAGTATAAACCTTTTTA [XGTACX_site290]”: 11.2 ± 0.84; “ATTTTTTTTTTTTTTTTAAGACAAACTCTTAATTTA [CACACA_negctrl_site1389]”: 9.9 ± 0.22.
The result for “ATTCCAAAAAAATCAAGTACTAATTTATTATATTAC [XGTACX_site3920]” reads 10.9 ± 0.49; that for “TATTTTTTTAAGTGCAGTACACTTAATTTCCCCCAA [XGTACX_site7328]”, 11.5 ± 1.2; that for “AAAAAAAAAAAAAAAAAAATATATTATATATATATA [XGTACX_negctrl_site467]”, 10.3 ± 0.23.
With “TATATATATATAAATACATGCATATAATTAATCCAT [TGCATGCA_site400]”, the “gcPBM binding intensity (ln)” value was 9.85 ± 0.31.
The result for “TCAAAAAATATATTTGCACACTCAAAAAAAAAAAAA [CACACA_site860]” reads 9.82 ± 0.41; that for “TACACACATTACAGATGTACATAAAATTAAAAAAAT [XGTACX_site1804]”, 11.3 ± 0.71; that for “CCTAGAAAAGCATATACACACGCGCAAAATAAAATT [CACACA_site4902]”, 10.3 ± 0.26.
As to “TCTTTAAAAAAAAAAAAAAAAAATTCCAAATAAATA [TGCATGCA_negctrl_site538]”, the “gcPBM binding intensity (ln)” value came to 9.39 ± 0.042.
The result for “ACAGGAGTATAACCTCGTACAAAATATATTTACCAT [XGTACX_site5805]” reads 10.8 ± 0.42; that for “TAAAAATAAAGAAAATGTACATAAATAAAAATAAAG [XGTACX_site2279]”, 11.2 ± 0.64; that for “TATATATATACATAATGTACAAGAATTTGTATTGAA [XGTACX_site627]”, 10.8 ± 0.45.
With “TATAAAAAAAAAATTTGTACATAATAATATATATAT [XGTACX_site2074]”, the “gcPBM binding intensity (ln)” value stood at 10.7 ± 0.49.
Next, “TTATATATAAAATACTGTACATTTAATTGATGGTTT [XGTACX_site2073]”: 11.1 ± 0.72.
As for “GAATGAATTGTTATTAGTACACATGTGAATTATAAA [XGTACX_site6790]”, the “gcPBM binding intensity (ln)” value amounted to 11.3 ± 0.76.
Next, “ACACATTATAAAACTGTCGCTCATAAAGAAGAATGA [CACACA_negctrl_site999]”: 10.17 ± 0.071; “GCAACAAAAAATCAGACATGCATTTTAAAATGAATA [TGCATGCA_site846]”: 9.67 ± 0.099.
Next, “CATATTGAATATTTAACACACATTTCGCTTAATTCA [CACACA_site2086]”: 9.95 ± 0.11; “ATTTTTTTTTTTTTTATTCCCCTTTCGAAAAAAACC [CACACA_negctrl_site1139]”: 10.2 ± 0.3; “ATATGTTTACGTAAATGTACACGTCAGTATATTTCT [XGTACX_site8199]”: 11.4 ± 0.64.
Next, “ATATATATATAACATTGTACACACAAAGAAATAATA [XGTACX_site6440]”: 11.2 ± 0.76.
On to “TTTTATAATAAGTATGTAAAAATTATATATATATAT [CACACA_negctrl_site711]”, for which the “gcPBM binding intensity (ln)” value was 9.97 ± 0.45.
The result for “AACTTGTATATATACACACACACACTATCTTTTTTT [CACACA_site8601]” reads 10.08 ± 0.028; that for “AAAAAGCAGGATTATACACACAAATATATATATGTT [CACACA_site1077]”, 9.88 ± 0.16; that for “TATATAAATTTAATAACACACATATAAAAATGAATT [CACACA_site2366]”, 9.82 ± 0.071.

The values are drawn from the supplement of paper PMC11417369.
